Some of the results follow. Single values are uncertain, as repeats are few or missing.
Experiments:
Assay in all cases: cell count relative to DMSO control; melanoma cells; higher = more viable cells
Settings in all cases: library dose: low library concentration; 72 h
WM115 = test system: WM115
WM1716 = test system: WM1716
WM1745 = test system: WM1745
WM3526 = test system: WM3526
WM3619 = test system: WM3619
WM451Lu = test system: WM451Lu
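Also: cell number obtained by counting DAPI-stained nuclei in high-throughput microscope images with image analysis software, screen run in 1,536-well plates.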

SMILES	cell count (WM115) [%]	cell count (WM1716) [%]	cell count (WM1745) [%]	cell count (WM3526) [%]	cell count (WM3619) [%]	cell count (WM451Lu) [%]
Cc1nc(Nc2ncc(C(=O)Nc3c(C)cccc3Cl)s2)cc(N2CCN(CCO)CC2)n1 [dasatanib] + N#Cc1c(O)c2c(-c3ccc(-c4ccccc4O)cc3)csc2[nH]c1=O [A769662] (first compound 0.004 µM, partner dose 2 µM)	86.4	76.5	52	100	72.5	85.9
C[C@]1(c2nc3c(C(N)=O)cccc3[nH]2)CCCN1 [Veliparib] + O=C(O)c1ccc(-c2c[nH]c3ncc(-c4ccccc4)cc23)cc1C1CCCC1 [GSK650394] (first compound 1.4 µM, partner dose 0.16 µM)	81	87.1	80.1	92	73.9	104
C[C@]1(c2nc3c(C(N)=O)cccc3[nH]2)CCCN1 [Veliparib] + NC(=O)Nc1cc(-c2cccc(F)c2)sc1C(=O)N[C@H]1CCCNC1 [AZD7762] (first compound 1.4 µM, partner dose 0.02 µM)	82.8	79.5	101	80.5	38.8	117
C[C@]1(c2nc3c(C(N)=O)cccc3[nH]2)CCCN1 [Veliparib] + COC(=O)c1sccc1S(=O)(=O)Nc1ccc(Nc2ccccc2)cc1OC [GSK0660] (first compound 1.4 µM, partner dose 1 µM)	77.6	92	93.5	117	115	96.9
Cc1nc(Nc2ncc(C(=O)Nc3c(C)cccc3Cl)s2)cc(N2CCN(CCO)CC2)n1 [dasatanib] + O=C(O)c1ccc(-c2c[nH]c3ncc(-c4ccccc4)cc23)cc1C1CCCC1 [GSK650394] (first compound 0.004 µM, partner dose 0.16 µM)	75.7	68.7	62.1	97.7	88.8	91.4
Cc1nc(Nc2ncc(C(=O)Nc3c(C)cccc3Cl)s2)cc(N2CCN(CCO)CC2)n1 [dasatanib] + Oc1nc(-c2ccc(C(F)(F)F)cc2)nc2c1CSCC2 [XAV939] (first compound 0.004 µM, partner dose 2 µM)	57.4	43.2	43.9	100	80.6	97.1
Cc1nc(Nc2ncc(C(=O)Nc3c(C)cccc3Cl)s2)cc(N2CCN(CCO)CC2)n1 [dasatanib] + CCN(CC)CCCCNc1ncc2cc(-c3cc(OC)cc(OC)c3)c(NC(=O)NC(C)(C)C)nc2n1 [PD173074] (first compound 0.004 µM, partner dose 0.1 µM)	67.4	80.8	59.7	110	106	91.9
C=CCn1c(=O)c2cnc(Nc3ccc(N4CCN(C)CC4)cc3)nc2n1-c1cccc(C(C)(C)O)n1 + COc1ccc(-c2ccc3c(N4CCOCC4)nc(N4C[C@@H](C)O[C@@H](C)C4)nc3n2)cc1CO [KU0063794] (first compound 0.02 µM, partner dose 0.02 µM)	79.8	93.6	83.7	94.2	58	121
Cc1nc(Nc2ncc(C(=O)Nc3c(C)cccc3Cl)s2)cc(N2CCN(CCO)CC2)n1 [dasatanib] + CO[C@@H]1[C@H](N(C)C(=O)c2ccccc2)C[C@H]2O[C@]1(C)n1c3ccccc3c3c4c(c5c6ccccc6n2c5c31)C(=O)NC4 [Midostaurin] (first compound 0.004 µM, partner dose 0.08 µM)	57.3	39.3	51.2	109	73.7	89.1
C[C@]1(c2nc3c(C(N)=O)cccc3[nH]2)CCCN1 [Veliparib] + Cc1cc([N+](=O)[O-])ccc1NS(=O)(=O)c1cc(Cl)ccc1Cl [FH535] (first compound 1.4 µM, partner dose 1 µM)	86.2	82.7	85.2	96.2	95.2	88.7
OCCn1cc(-c2cnc3nnn(Cc4ccc5ncccc5c4)c3n2)cn1 + COc1ccc(COc2ccc(Cc3cnc(N)nc3N)cc2OC)cc1 [GW2580] (first compound 1 µM, partner dose 1 µM)	102	93.3	104	77.5	74.2	103
OCCn1cc(-c2cnc3nnn(Cc4ccc5ncccc5c4)c3n2)cn1 + CC(C)CCN1c2nc(Nc3cc(F)c(O)c(F)c3)ncc2N(C)C(=O)C1C [BID1870] (first compound 1 µM, partner dose 0.2 µM)	103	94.9	103	75.5	97.8	112
C=CCn1c(=O)c2cnc(Nc3ccc(N4CCN(C)CC4)cc3)nc2n1-c1cccc(C(C)(C)O)n1 + O=S(=O)(c1ccccc1)N(CC(F)(F)F)c1ccc(C(O)(C(F)(F)F)C(F)(F)F)cc1 [T0901317] (first compound 0.02 µM, partner dose 1.4 µM)	85.3	82.4	62.1	101	73.2	104
Cc1nc(Nc2ncc(C(=O)Nc3c(C)cccc3Cl)s2)cc(N2CCN(CCO)CC2)n1 [dasatanib] + CC1(C)NC(=O)N(c2ccc([N+](=O)[O-])c(C(F)(F)F)c2)C1=O [nilutamide] (first compound 0.004 µM, partner dose 1 µM)	79.2	75	71	114	96.5	89.9
C=CCn1c(=O)c2cnc(Nc3ccc(N4CCN(C)CC4)cc3)nc2n1-c1cccc(C(C)(C)O)n1 + Cc1cc(N2CCOCC2)cc2[nH]c(-c3c(NC[C@@H](O)c4cccc(Cl)c4)cc[nH]c3=O)nc12 [BMS536924] (first compound 0.02 µM, partner dose 0.2 µM)	89.7	89.8	62.5	85.6	68.5	98
C[C@]1(c2nc3c(C(N)=O)cccc3[nH]2)CCCN1 [Veliparib] + COc1cc2c(Oc3ccc4[nH]c(C)cc4c3F)ncnc2cc1OCCCN1CCCC1 [cediranib] (first compound 1.4 µM, partner dose 0.4 µM)	88.6	86.4	91	97.6	107	104
Cc1nc(Nc2ncc(C(=O)Nc3c(C)cccc3Cl)s2)cc(N2CCN(CCO)CC2)n1 [dasatanib] + COCC[n+]1c2c(n(Cc3cnccn3)c1C)C(=O)c1ccccc1C2=O [YM155] (first compound 0.004 µM, partner dose 0.0004 µM)	73.2	69.7	64	81.3	52.4	50.6
NCC(=O)Nc1ccc(-n2nc(C(F)(F)F)cc2-c2ccc3c(ccc4ccccc43)c2)cc1 + Cc1cc([N+](=O)[O-])ccc1NS(=O)(=O)c1cc(Cl)ccc1Cl [FH535] (first compound 1 µM, partner dose 1 µM)	98.2	96.2	91.8	51.3	104	76
OCCn1cc(-c2cnc3nnn(Cc4ccc5ncccc5c4)c3n2)cn1 + C[C@@H]1CCN(C(=O)CC#N)C[C@@H]1N(C)c1ncnc2[nH]ccc12 [CP690550] (first compound 1 µM, partner dose 1 µM)	96.4	99	103	132	102	113
OCCn1cc(-c2cnc3nnn(Cc4ccc5ncccc5c4)c3n2)cn1 + O=C(O)c1ccc(-c2c[nH]c3ncc(-c4ccccc4)cc23)cc1C1CCCC1 [GSK650394] (first compound 1 µM, partner dose 0.16 µM)	103	97.2	97.9	105	121	89.5
NCC(=O)Nc1ccc(-n2nc(C(F)(F)F)cc2-c2ccc3c(ccc4ccccc43)c2)cc1 + N#Cc1c(O)c2c(-c3ccc(-c4ccccc4O)cc3)csc2[nH]c1=O [A769662] (first compound 1 µM, partner dose 2 µM)	97	100	98.7	58.9	71.6	59.6
Cc1nc(Nc2ncc(C(=O)Nc3c(C)cccc3Cl)s2)cc(N2CCN(CCO)CC2)n1 [dasatanib] + O=C(CCCCCCC(=O)Nc1ccccc1)NO [vorinostat] (first compound 0.004 µM, partner dose 0.08 µM)	65.8	86.3	73.5	106	84.7	49.1
C[C@]1(c2nc3c(C(N)=O)cccc3[nH]2)CCCN1 [Veliparib] + COc1ccc2c(c1)CCC1C2CCC2(C)C(NCCCCCCN3C(=O)C=CC3=O)CCC12 [U73122] (first compound 1.4 µM, partner dose 0.4 µM)	90.1	75.2	78.6	104	93	96.6
